These results are taken from PubChem BioAssay AID1240 (Sanford-Burnham Center for Chemical Genomics, 2008).

The structures appear in SMILES notation. Hit rate of the full screen: of about 50,000 compounds, about 800 (1.6%) showed an effect of 50% or more. Some of the results follow.

The assay concerns the target Bcl-2-like protein 10 (Homo sapiens) (UniProt Q9HD36). Kind of assay: TR3 peptide-Bcl-B binding displacers, biochemical primary FP assay, phenotype converters (AID 1240).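 Note: 0% = Bcl-B with tracer peptide and DMSO and 100% = tracer peptide lacking Bcl-B.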 The settings on record: GST-Bcl-B / FITC-TR3 peptide fluorescence polarization; stronger effect = higher value; compound at 3.75 mg/L. Background: Polarisation of emitted light reports the rotation of a fluorescent probe.
Sequence of UniProt Q9HD36 (Q9HD36 whole entry, looked up): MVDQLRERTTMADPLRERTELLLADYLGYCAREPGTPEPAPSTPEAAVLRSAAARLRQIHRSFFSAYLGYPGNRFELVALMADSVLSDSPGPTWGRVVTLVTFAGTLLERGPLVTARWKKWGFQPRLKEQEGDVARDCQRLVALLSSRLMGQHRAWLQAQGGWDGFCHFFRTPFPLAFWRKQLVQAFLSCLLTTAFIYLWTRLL
Consider `O=c1[nH]c(=S)n(-c2ccc(Cl)c(Cl)c2)c(O)c1/C=C1/C=Nc2ccccc21`, for which the displacement was -0.5%.

In the case of `COCCNC(=O)/C(=C/c1ccc(C(C)C)cc1)NC(=O)c1ccccc1`, the displacement was 5.3%.

Take `COc1ccc(-c2nc3ccccc3nc2N2CCOCC2)cc1`: the displacement was 6.7%.

Turning to `C=CCOc1ccc(/C=C2/C(=O)NC(=O)N(c3ccc(C)cc3)C2=O)cc1OCC`, the displacement is -2.8%.

`Cc1cccc(N2CCN(S(C)(=O)=O)CC2)c1C`: the displacement is -7.2%.

For `O=C(/C=C/c1ccccc1Cl)NCC1CCCO1` (centres undefined), the displacement came to 6.6%.

As for `O=C(O)C(c1ccccc1)N1C(=O)/C(=C/C=C/c2ccccc2)SC1=S` (centres undefined), the displacement is -0.6%.

For the molecule `COc1ccc(C2CC(=O)C3=C(C2)Nc2ccccc2NC3c2cc3c(cc2[N+](=O)[O-])OCO3)cc1` (centres undefined), the displacement was 15.2%.

Turning to `CCCC(=O)NC(c1ccccc1Cl)c1ccc2cccnc2c1O` (centres undefined), the displacement was -22.9%.

Turning to `COc1cc(CN2CCN(C(=O)c3ccc([N+](=O)[O-])cc3)CC2)cc(OC)c1OC`, the displacement worked out at 2.3%.

`COc1cc(NC(=O)c2cccc(Cl)c2)cc(OC)c1`: the displacement is 3.2%.

In the case of `O=C(c1ccco1)N1CCN(Cc2c[nH]c3ccccc23)CC1`, the displacement was 3.4%.

`COc1ccc(-c2nc3ccccc3c(C(=O)Nc3ccc(C)cc3)c2C)cc1`: the displacement stood at 11.2%.

With `COC(=O)C1=C(C)N(C)C(=O)NC1c1ccc([N+](=O)[O-])s1` (centres undefined), the displacement amounted to 10.8%.

For the molecule `NC(=O)C1(c2ccccc2)CCCN1C(=O)c1ccco1` (centres undefined), the displacement is -2.5%.

As for `CCOc1ccc2c(c1)C(C)=CC(C)(C)N2S(=O)(=O)c1ccc(C)cc1`, the displacement is -6%.

For `O=C1NC(=O)N(c2cccc(Cl)c2)C(=O)/C1=C/c1ccc(Oc2ccc([N+](=O)[O-])cn2)cc1`, the displacement stood at 14.5%.

Regarding `COc1c(Cl)cc(C(=O)Nc2cccc(-c3nc4ncccc4o3)c2)cc1Cl`, the displacement is 3.5%.

As for `COc1ccccc1CNC(=O)CN(c1cccc([N+](=O)[O-])c1)S(=O)(=O)c1ccccc1`, the displacement was -0.6%.

`CCCCOc1ccc(NC(=O)c2cccc(OC)c2)cc1`: the displacement stood at 15%.

With `c1ccc(-n2ncc3c(N4CCN(C5CCCCC5)CC4)ncnc32)cc1`, the displacement was found to be 2.6%.

`COc1ccc(C(=O)OCCCN2C(=O)c3ccccc3C2=O)cc1`: the displacement came out at 14.1%.

Regarding `COc1ccc(/C=C/C(=O)c2ccc(Cl)cc2)c(OC)c1`, the displacement came to 11%.

For `O=C(O)CCCCCN1C(=O)C(=O)/C(=C(/O)c2ccc(F)cc2)C1c1ccc2c(c1)OCO2` (centres undefined), the displacement is -1.5%.

Regarding `Fc1ccc(NC(=S)Nc2ccccn2)cc1`, the displacement was -5.3%.

As to `CCOc1ccc(C(=O)c2ccc(Cl)cc2)cc1OCC`, the displacement came out at 6.2%.

With `CC(C)c1cc(C(C)C)c(S(N)(=O)=O)c(C(C)C)c1`, the displacement was -2.5%.

As for `Cc1cc(C)c(C(=O)/C(=C/c2ccc(Br)cc2)c2ccccc2)c(=O)[nH]1`, the displacement is 7.1%.

Turning to `COc1cccc(C2/C(=C(\O)c3ccc(C)cc3)C(=O)C(=O)N2CCCC(=O)O)c1` (centres undefined), the displacement is 0.9%.

Turning to `O=C(OCCN1CCOCC1)c1ccc(F)cc1`, the displacement is 1.4%.

`COc1ccc(-c2c(-c3ccc(Cl)cc3)nn(-c3ccccc3)c2N)cc1OC`: the displacement was 9.1%.

Take `CCCC(=O)Oc1cc2c(C(=O)OCC)c(C)n(C)c2c2ccccc12`: the displacement amounted to 12.2%.

On to `CN1C2=NC(=O)/C(=C/c3ccccc3[N+](=O)[O-])N2c2ccccc21`, for which the displacement was -10.6%.

For the molecule `CN(C)c1cccc(NC(=O)c2cccc3ccccc23)c1`, the displacement was found to be 0%.

Take `CCOC(=O)C1=C(C)N=C2SCC(=O)N2C1c1ccc(-c2cccc([N+](=O)[O-])c2)o1` (centres undefined): the displacement was determined as 5.1%.

Turning to `O=C(N/N=C/c1ccco1)c1ccccc1`, the displacement is 0.2%.

Turning to `Cc1ccc(NC(=O)c2cc3cc([N+](=O)[O-])ccc3oc2=O)c(C)c1`, the displacement was -5.8%.

Regarding `Cc1cc(Cl)ccc1OCC(=O)NNC(=O)c1ccco1`, the displacement is -0.3%.

For the molecule `O=[N+]([O-])c1cccc(Cl)c1N1CCN(S(=O)(=O)c2ccc(Cl)cc2)CC1`, the displacement was found to be 11.7%.

In the case of `COc1ccc(N2C(=O)CC(N3CCSCC3)C2=O)cc1` (centres undefined), the displacement stood at 3.7%.

For the molecule `CCOC(=O)C1=C(C)N=c2s/c(=C\c3ccc(NC(C)=O)cc3)c(=O)n2C1c1ccccc1` (centres undefined), the displacement is -24.8%.

Turning to `COc1ccccc1N(CC(=O)NCCc1ccccc1)S(=O)(=O)c1ccccc1`, the displacement came to 1.7%.

Consider `Cc1ccccc1Cn1c(-c2nonc2N)nc2ccccc21`, for which the displacement worked out at 14.6%.

On to `Cc1ccc(N2C(=O)NC(=O)/C(=C\c3ccc(OCc4ccc(C(=O)O)cc4)cc3)C2=O)cc1`, for which the displacement was -3.6%.

As for `CCC(C(=O)Nc1ccc(C)c(C)c1)c1ccccc1` (centres undefined), the displacement is 8.5%.

Consider `COc1cc(/C=C2/C(=O)NC(=O)N(c3ccc(C(C)C)cc3)C2=O)cc(Cl)c1O`, for which the displacement was found to be 17.1%.

Take `CCOc1cc(/C=C2\SC(=S)N(NC(=O)c3ccccc3Cl)C2=O)ccc1O`: the displacement stood at 1.5%.

As to `O=C(O)C(Cc1ccccc1)N1C(=O)/C(=C/c2ccc(O)cc2)SC1=S` (centres undefined), the displacement is -23.7%.

For `O=C(O)c1ccc2c(c1)C(=O)N(c1ccc(-c3nc4ccccc4s3)cc1)C2=O`, the displacement was -0.2%.

For the molecule `COc1ccc(C(=O)N2CCN(Cc3ccccc3F)CC2)cc1OC`, the displacement came to 56%.

Consider `O=C(NNS(=O)(=O)c1ccc2ccccc2c1)c1cccc(Cl)c1`, for which the displacement came out at 4.8%.

Consider `CCOC(=O)C(C)Oc1cc2oc(=O)c(CC)c(C)c2cc1CC` (centres undefined), for which the displacement was -10.5%.

`O=C(CCC1CCCC1)Nc1c(F)c(F)c(F)c(F)c1F`: the displacement is -9.3%.

With `Cc1ccc(-c2cc(NC(=O)COc3ccccc3)n[nH]2)cc1`, the displacement is 11%.

As to `O=C(Nc1ccc(-c2nc3cc(Cl)ccc3o2)cc1)c1ccc(Br)o1`, the displacement is -37.9%.

In the case of `CCSc1nc2sc3c(c2c2nnnn12)CCC3`, the displacement worked out at 12.7%.

As to `Cc1ccc(NC(=O)/C=C/c2ccccc2)cc1`, the displacement was -3.5%.

Take `CCSc1nnc(NC(=O)CCC2CCCCC2)s1`: the displacement is 2.4%.

`CC(C)=CCC/C(C)=C/CC(C)(C)C1OCCO1`: the displacement worked out at 0.2%.

Take `CC(C)(C)c1csc(N/N=C/c2ccccn2)n1`: the displacement was -6.6%.

`CC1=NN(c2ccccc2)C(=O)/C1=C/c1c(O)n(C)c(=O)n(C)c1=O`: the displacement stood at 11.3%.

For the molecule `O=C(Nc1ccc(Nc2ccccc2)cc1)c1cccc(Cl)c1`, the displacement is 8.7%.

As to `COc1ccc(C2CC(=O)C3=C(C2)Nc2ccccc2NC3c2ccc(F)c(F)c2)cc1OC` (centres undefined), the displacement was -5.1%.

For `Cc1ccc(S(=O)(=O)NC(=O)NCCc2ccccc2)cc1`, the displacement worked out at 10.9%.

`CCc1nnc(NC(=O)CN2CCN(C(=O)c3ccccc3)CC2)s1`: the displacement is 12.6%.

As to `CCN(CC)c1ccc(N=Cc2ccccc2OCc2ccccc2)cc1`, the displacement was -8.5%.

For `O=c1[nH]c2ccccc2c2nc3ccccn3c12`, the displacement is -8.7%.

For `O=S(=O)(Nc1ccc(O)c2ccccc12)c1cc(Cl)ccc1Cl`, the displacement came out at 15.9%.

`Cc1cc(C)nc(N/N=C\c2c[nH]c3ccccc23)n1`: the displacement is -19.3%.

On to `Cc1sc2c(=O)n3c(nc2c1C(=O)NC1CCCCC1)CCCCC3`, for which the displacement turned out to be 23.8%.

For `Cc1ccc(N2C(=O)CC(NCc3cccc(Cl)c3)C2=O)cc1` (centres undefined), the displacement came out at 1.2%.

For `O=C(O)CCCCCN1C(=O)C(O)=C(C(=O)/C=C/c2ccccc2)C1c1ccc(F)cc1` (centres undefined), the displacement is -1%.

In the case of `CC(=O)c1c(C)oc2c1C(=O)c1ccccc1C2=O`, the displacement was 2.9%.

In the case of `CCOC(=O)C1=CN(c2ccc(OCC)cc2)C=C(C(=O)OCC)C1c1ccc(OC)c(OC)c1`, the displacement was 7.6%.

As to `COc1ccccc1C1=N/C(=C\c2ccc3c(c2)OCO3)C(=O)O1`, the displacement amounted to 111%.

Consider `C#Cc1cccc(N2C(=O)c3ccc(Oc4cccc([N+](=O)[O-])c4)cc3C2=O)c1`, for which the displacement was -3.5%.

With `O=C(Nc1ccc(Cc2ccncc2)cc1)c1ccc(Br)o1`, the displacement was determined as 13.1%.

Take `COC(=O)C1=C(C)N=c2s/c(=C/C=C/c3ccccc3)c(=O)n2C1c1ccccc1` (centres undefined): the displacement came out at 3.9%.

On to `CC(=O)COc1ccc2c3c(c(=O)oc2c1C)CCC3`, for which the displacement is 12.8%.

Regarding `CCOC(=O)COc1ccc2c(=O)c(Oc3ccccc3Br)coc2c1`, the displacement was -8.7%.

Regarding `O=C1c2ccccc2C(=O)N1CN1c2ccccc2CCc2ccccc21`, the displacement was -8.3%.

Consider `CC(=O)c1cccc(NC(=O)Nc2ccc(Cl)cc2)c1`, for which the displacement is 2.2%.

Take `Cc1nc(N2CCCCC2)[nH]c(=O)c1C=O`: the displacement is -5.9%.

For the molecule `CC1=C(C(=O)Nc2ccccc2)C(c2ccc(Cl)cc2)NC(=S)N1` (centres undefined), the displacement was -4.2%.

Consider `O=C(c1cc(Cl)cc(Cl)c1)N1CCOCC1`, for which the displacement is -5.7%.

In the case of `CCOP(=O)(OCC)C(NC(=O)c1ccco1)C(=O)c1ccc(C)cc1` (centres undefined), the displacement was found to be 11.7%.

As for `Cc1ccc(-c2nnc(-c3cccs3)o2)cc1`, the displacement is -9.2%.

For the molecule `COC(=O)C(Cc1ccccc1)NC(=O)CCN1C(=O)c2cccc3cccc(c23)C1=O` (centres undefined), the displacement was found to be 15%.

As to `COc1ccc(C2CC(=O)C3=C(C2)Nc2ccccc2NC3c2ccc(O)cc2)cc1OC` (centres undefined), the displacement came to 1.8%.

As to `NC(=O)C1CCN(Cc2c(O)ccc3ccccc23)CC1`, the displacement was determined as 12.1%.

Regarding `COc1ccc(NC(=O)COc2cccc(C)c2C)cc1`, the displacement was -8.3%.

As to `CCC(=O)N(Cc1ccco1)C1CC(=O)N(c2ccccc2)C1=O` (centres undefined), the displacement was -7.7%.

As to `CCOC(=O)C1=C(c2ccccc2)NC(=S)NC1c1ccc(SC)cc1` (centres undefined), the displacement turned out to be 6.1%.

Turning to `COc1cccc(NC(=O)c2cc(Cl)ccc2OC)c1`, the displacement is 0.3%.

Take `C/C(Nc1ccccc1)=C(/C#N)C(N)=O`: the displacement was -17.4%.

With `C=CCN1C(=O)/C(=C\c2cc([N+](=O)[O-])cc([N+](=O)[O-])c2O)C(=O)NC1=S`, the displacement is 42.1%.

For `CCOC(=O)COc1c(Cl)cc(C=C2C(=O)NC(=S)NC2=O)cc1Cl`, the displacement amounted to 15.6%.

Turning to `Cc1ccc(-n2c(=O)c3c(n4c(=S)[nH]nc24)-c2ccccc2CC32CCCCC2)cc1`, the displacement is -22.5%.

For the molecule `Cc1cc(C(=O)NCCC(C)C)ccc1[N+](=O)[O-]`, the displacement came to 8.7%.

Turning to `COc1ccc(C(=S)N2CCCC2)c(OC)c1`, the displacement was -6.7%.

Take `CCOc1ccccc1C=NN1CCN(Cc2ccccc2)CC1`: the displacement is -6%.

Regarding `Cc1ccc(-c2csc(NC(=O)c3ccc(Cl)cc3[N+](=O)[O-])n2)c(C)c1`, the displacement is -0.3%.

As to `CC1CCCC(N2CCN(Cc3cccnc3)CC2)C1` (centres undefined), the displacement was -4.7%.

Turning to `COc1cc(OC)cc(C(=O)Nc2cc(C)ccc2OC)c1`, the displacement amounted to 12.4%.

As for `CS(=O)(=O)c1ccc2nc(NC(=O)c3cc([N+](=O)[O-])ccc3Cl)sc2c1`, the displacement is -3.8%.

Turning to `O=[N+]([O-])c1cccc(N=Cc2ccc[nH]2)c1`, the displacement was -2.1%.

Consider `Cc1cccc(C)c1NC(=S)NC(=O)/C=C/c1ccccc1`, for which the displacement was 12.1%.

Consider `O=C(CSc1nc2ccccc2s1)Nc1ccccc1F`, for which the displacement is -6.7%.

For `Cc1ccc(N2C(=O)CC(NC(C)C34CC5CC(CC(C5)C3)C4)C2=O)cc1` (centres undefined), the displacement was found to be 2.8%.
